Results taken from patent US12649765B2 (Arizona Board of Regents on Behalf of the University of …, priority 2020, dated 2026).
Entries after “also recorded” stand apart in the source; their conditions may differ. For part of these data: Not every detail of the peptide structures is certain; ends, links or a residue may be inferred. For part of these data: At least one compound was matched to its structure with a doubt left. Where a SMILES comes first, the peptide text is derived from it. Bridges are numbered along the chain shown (N, C = ends). [ ]: non-standard residue; d: D form. The star is where a group is joined. X2 = OC[C@H]1O[C@@H](O[C@H]2[C@H](O)[C@@H](O)C(*)O[C@@H]2CO)[C@H](O)[C@@H](O)[C@H]1O; X1 = OC[C@H]1OC(*)[C@H](O)[C@@H](O)[C@@H]1O; Dap = NC[C@H](N)C(=O)O; Aib = CC(C)(N)C(=O)O

What was measured:
[1] = Paclitaxel-induced CIPN, Von Frey filaments mechanical threshold, icv injection; format: in vivo, CD-1 mice; details: 10 nmol icv on day 8, 2 mg/kg paclitaxel on days 1, 3, 5, 7
[2] = 52° C. warm water tail flick assay, icv injection; format: in vivo; details: 10 nmol icv, male and female CD-1 mice
[3] = 52° C. warm water tail flick assay, iv injection; format: in vivo; details: 10 mg/kg iv, 10 second cutoff, male and female CD-1 mice
[4] = biological target: human Mu Opioid Receptor (MOR) (Homo sapiens, UniProt P35372); format: binding
OTR = OTR (Homo sapiens, UniProt P30559); test: EC50 (nM) | OTR; details: read-out: EC50 (nM) | OTR
Source text: Table printed on a drawing sheet, FIG. 6
The patent's description of the figure: FIG. 6 is a table showing EC50 for OXTR agonistic activity for some of the representative cyclic oligopeptides of the invention.
First copying reader's note: Each value cell holds the EC50 together with its ± error; NA is not defined on the sheet.

Chain of human Mu Opioid Receptor (MOR) (P35372 whole entry): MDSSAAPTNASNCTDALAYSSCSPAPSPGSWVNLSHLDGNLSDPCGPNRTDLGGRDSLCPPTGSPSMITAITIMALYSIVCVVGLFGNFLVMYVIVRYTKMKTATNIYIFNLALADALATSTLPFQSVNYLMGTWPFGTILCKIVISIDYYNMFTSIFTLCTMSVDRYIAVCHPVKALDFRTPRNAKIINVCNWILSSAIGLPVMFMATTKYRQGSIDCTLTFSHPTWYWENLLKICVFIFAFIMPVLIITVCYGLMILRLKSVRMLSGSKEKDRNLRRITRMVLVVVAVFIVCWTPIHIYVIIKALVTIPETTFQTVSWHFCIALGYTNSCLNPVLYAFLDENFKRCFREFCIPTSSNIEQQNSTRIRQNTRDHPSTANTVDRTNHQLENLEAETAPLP
Chain of OTR (P30559 whole entry, looked up): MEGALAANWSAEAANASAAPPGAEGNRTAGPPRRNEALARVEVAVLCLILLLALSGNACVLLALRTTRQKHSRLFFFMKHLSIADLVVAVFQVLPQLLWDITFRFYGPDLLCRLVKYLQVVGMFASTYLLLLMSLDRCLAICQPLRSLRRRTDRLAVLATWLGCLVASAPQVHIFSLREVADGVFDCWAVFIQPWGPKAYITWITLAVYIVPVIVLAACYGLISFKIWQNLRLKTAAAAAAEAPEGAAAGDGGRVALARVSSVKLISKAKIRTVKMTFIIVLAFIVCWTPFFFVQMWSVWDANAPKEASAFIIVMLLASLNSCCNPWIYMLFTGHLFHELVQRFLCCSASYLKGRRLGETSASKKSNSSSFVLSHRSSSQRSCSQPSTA

| Structure (SMILES) | anti-nociception in CIPN model (mechanical threshold) [1] | anti-nociception in tail flick assay [2] | anti-nociception in tail flick assay [3] | IC50 [4] | Ki [4] | EC50 (OTR) |
| --- | --- | --- | --- | --- | --- | --- |
| CC[C@H](C)[C@@H]1NC(=O)[C@H](Cc2ccc(O)cc2)NC(=O)[C@@H](N)CC(=O)NC[C@@H](C(=O)N2CCC[C@H]2C(=O)N[C@@H](CC(C)C)C(=O)NCC(N)=O)NC(=O)[C@H](CC(N)=O)NC(=O)[C@H](CCC(N)=O)NC1=O [2LS118-1, Asp-Tyr-Ile-Gln-Asn-Dap-Pro-Leu-Gly-CONH2 (SEQ ID NO: 5)] (H-DYIQN[Dap]PLG-NH2; lactam 1-6) | high anti-nociceptive efficacy; also recorded: substantially equivalent anti-nociception | the same degree and duration of anti-nociceptive activity; also recorded: substantially equivalent anti-nociception | approximately half-maximal efficacy; also recorded: almost half to full maximal efficacy vs. morphine |  |  |  |
| CC[C@H](C)[C@@H]1NC(=O)[C@H](Cc2ccc(O)cc2)NC(=O)[C@@H](N)CC(=O)NC[C@@H](C(=O)N2CCC[C@H]2C(=O)N[C@@H](CC(C)C)C(=O)N[C@@H](COC2O[C@H](CO)[C@@H](O)[C@H](O)[C@H]2O)C(N)=O)NC(=O)[C@H](CC(N)=O)NC(=O)[C@H](CCC(N)=O)NC1=O (stereo partly drawn) [2LS118-4, Asp-Tyr-Ile-Gln-Asn-Dap-Pro-Leu-SerGlc-CONH2 (SEQ ID NO: 8)] (H-DYIQN[Dap]PLS(X1)-NH2; lactam 1-6; N-terminus assumed) |  |  |  | > 2.5 µM | > 2.5 µM |  |
| CC[C@H](C)[C@@H]1NC(=O)[C@H](Cc2ccc(O)cc2)NC(=O)[C@@H](N)CC(=O)NC[C@@H](C(=O)N2CCC[C@H]2C(=O)N[C@@H](CC(C)C)C(=O)NCC(=O)N[C@@H](COC2O[C@H](CO)[C@@H](O)[C@H](O)[C@H]2O)C(N)=O)NC(=O)[C@H](CC(N)=O)NC(=O)[C@H](CCC(N)=O)NC1=O (stereo partly drawn) [2LS118-5, Asp-Tyr-Ile-Gln-Asn-Dap-Pro-Leu-Gly-SerGlc-CONH2 (SEQ ID NO: 9)] (H-DYIQN[Dap]PLGS(X1)-NH2; lactam 1-6; N-terminus assumed) |  |  |  | > 2.5 µM | > 2.5 µM |  |
| CC[C@H](C)[C@@H]1NC(=O)[C@H](Cc2ccc(O)cc2)NC(=O)[C@@H](N)CC(=O)NC[C@@H](C(=O)N2CCC[C@H]2C(=O)N[C@@H](CC(C)C)C(=O)NCC(=O)N[C@@H](COC2O[C@H](CO)[C@@H](O)[C@H](O)[C@H]2O)C(=O)N[C@@H](COC2O[C@H](CO)[C@@H](O)[C@H](O)[C@H]2O)C(N)=O)NC(=O)[C@H](CC(N)=O)NC(=O)[C@H](CCC(N)=O)NC1=O (stereo partly drawn) [2LS118-6, Asp-Tyr-Ile-Gln-Asn-Dap-Pro-Leu-Gly-(SerGlc)2-CONH2 (SEQ ID NO: 10)] (H-DYIQN[Dap]PLGS(X1)S(X1)-NH2; lactam 1-6; N-terminus assumed) |  |  |  | > 2.5 µM | > 2.5 µM |  |
| CC[C@H](C)[C@@H]1NC(=O)[C@H](Cc2ccc(O)cc2)NC(=O)[C@@H](N)CC(=O)NC[C@@H](C(=O)N2CCC[C@H]2C(=O)N[C@@H](CC(C)C)C(=O)N[C@@H](COC2O[C@H](CO)[C@@H](O[C@@H]3O[C@H](CO)[C@H](O)[C@H](O)[C@H]3O)[C@H](O)[C@H]2O)C(N)=O)NC(=O)[C@H](CC(N)=O)NC(=O)[C@H](CCC(N)=O)NC1=O (stereo partly drawn) [SS-Oxy 1, Asp-Tyr-Ile-Gln-Asn-Dap-Pro-Leu-SerLact-CONH2 (SEQ ID NO: 11)] (H-DYIQN[Dap]PLS(X2)-NH2; lactam 1-6; N-terminus assumed) |  |  |  | > 2.5 µM | > 2.5 µM | 0.54 ± 0.48 nM |
| CC[C@H](C)[C@@H]1NC(=O)[C@H](Cc2ccc(O)cc2)NC(=O)[C@@H](N)CC(=O)NC[C@@H](C(=O)N2CCC[C@H]2C(=O)N[C@@H](CC(C)C)C(=O)NCC(=O)N[C@@H](COC2O[C@H](CO)[C@@H](O[C@@H]3O[C@H](CO)[C@H](O)[C@H](O)[C@H]3O)[C@H](O)[C@H]2O)C(N)=O)NC(=O)[C@H](CC(N)=O)NC(=O)[C@H](CCC(N)=O)NC1=O (stereo partly drawn) [SS-Oxy 2, Asp-Tyr-Ile-Gln-Asn-Dap-Pro-Leu-Gly-SerLact-CONH2 (SEQ ID NO: 12)] (H-DYIQN[Dap]PLGS(X2)-NH2; lactam 1-6; N-terminus assumed) |  |  |  | > 2.5 µM | > 2.5 µM | 161 ± 161 nM |
| CC[C@H](C)[C@@H]1NC(=O)[C@H](Cc2ccc(O)cc2)NC(=O)[C@@H](N)CC(=O)NC[C@@H](C(=O)N2CCC[C@H]2C(=O)NC(C)(C)C(=O)N[C@@H](COC2O[C@H](CO)[C@@H](O)[C@H](O)[C@H]2O)C(N)=O)NC(=O)[C@H](CC(N)=O)NC(=O)[C@H](CCC(N)=O)NC1=O (stereo partly drawn) [SS-Oxy 3, Asp-Tyr-Ile-Gln-Asn-Dap-Pro-Aib-SerGlc-CONH2 (SEQ ID NO: 13)] (H-DYIQN[Dap]P[Aib]S(X1)-NH2; lactam 1-6; N-terminus assumed) |  |  |  | > 2.5 µM | > 2.5 µM | 0.28 ± 0.17 nM |
| CC[C@H](C)[C@@H]1NC(=O)[C@H](Cc2ccc(O)cc2)NC(=O)[C@@H](N)CCC(=O)NC[C@@H](C(=O)N2CCC[C@H]2C(=O)N[C@@H](CC(C)C)C(=O)N[C@@H](COC2O[C@H](CO)[C@@H](O)[C@H](O)[C@H]2O)C(N)=O)NC(=O)[C@H](CC(N)=O)NC(=O)[C@H](CCC(N)=O)NC1=O (stereo partly drawn) [SS-Oxy 4, Glu-Tyr-Ile-Gln-Asn-Dap-Pro-Leu-SerGlc-CONH2 (SEQ ID NO: 14)] (H-EYIQN[Dap]PLS(X1)-NH2; lactam 1-6; N-terminus assumed) |  |  |  | > 2.5 µM | > 2.5 µM | 0.73 ± 0.49 nM |
| CC[C@H](C)[C@@H]1NC(=O)[C@H](Cc2ccc(O)cc2)NC(=O)[C@@H](N)CCC(=O)NC[C@@H](C(=O)N2CCC[C@H]2C(=O)NC(C)(C)C(=O)N[C@@H](COC2O[C@H](CO)[C@@H](O)[C@H](O)[C@H]2O)C(N)=O)NC(=O)[C@H](CC(N)=O)NC(=O)[C@H](CCC(N)=O)NC1=O (stereo partly drawn) [SS-Oxy 5, Glu-Tyr-Ile-Gln-Asn-Dap-Pro-Aib-SerGlc-CONH2 (SEQ ID NO: 15)] (H-EYIQN[Dap]P[Aib]S(X1)-NH2; lactam 1-6; N-terminus assumed) |  |  |  | > 2.5 µM | > 2.5 µM | 216 ± 109 nM |
